Measured values taken from publication PMC11352460, “RILP Induces Cholesterol Accumulation in Lysosomes by Inhibiting Endoplasmic Reticulum–Endolysosome Interactions” (Cells, 2024).
Results are given in words; binding and its absence hold for the method and conditions named. For some assays here: In cells and extracts the contact can be indirect. Some results given as binding are weak or reduced against the parent protein; the word gives no strength. Tags and fused reporters may be left off the sequences shown. Blank lines part the entries; values can stand above or below the binder they belong to.

Experiments:
[1] = target: T1, GST-RILP (Rab7-interacting lysosomal protein), Q96NA2; test: pull-down; GST-fusion protein coupled to GST-Sepharose 4B resin incubated with HEK-293T lysate containing the GFP-tagged protein, 4 °C overnight; lysis buffer 20 mM HEPES pH 7.4, 1% Triton X-100, 100 mM NaCl, 5 mM MgCl2; washes with 500, 300 and 100 mM NaCl; Western blot with GFP antibody; only the target purified; settings: remark: other sources report otherwise
T1 chain: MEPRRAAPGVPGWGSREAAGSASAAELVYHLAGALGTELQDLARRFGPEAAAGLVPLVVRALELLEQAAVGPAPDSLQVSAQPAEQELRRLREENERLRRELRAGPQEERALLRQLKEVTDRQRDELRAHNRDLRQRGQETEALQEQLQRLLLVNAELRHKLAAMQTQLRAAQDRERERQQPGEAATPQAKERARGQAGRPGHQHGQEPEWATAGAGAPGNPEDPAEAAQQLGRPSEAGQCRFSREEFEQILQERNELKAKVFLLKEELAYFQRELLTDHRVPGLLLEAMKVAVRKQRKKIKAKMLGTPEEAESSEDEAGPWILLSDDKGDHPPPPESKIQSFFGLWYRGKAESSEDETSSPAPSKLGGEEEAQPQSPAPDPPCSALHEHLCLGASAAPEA

[2] = target: T2, His-ORP1L, Q9BXW6; test: pull-down; in vitro binding: purified prokaryotic expressed His-ORP1L or His-ORP1L(336-950aa) with increasing amounts of His-RILP, incubated with GST-VAPa(1-225aa) retained on GST beads; ORP1L bound assessed by Western blot; both purified; settings: remark: other sources report otherwise
T2 chain: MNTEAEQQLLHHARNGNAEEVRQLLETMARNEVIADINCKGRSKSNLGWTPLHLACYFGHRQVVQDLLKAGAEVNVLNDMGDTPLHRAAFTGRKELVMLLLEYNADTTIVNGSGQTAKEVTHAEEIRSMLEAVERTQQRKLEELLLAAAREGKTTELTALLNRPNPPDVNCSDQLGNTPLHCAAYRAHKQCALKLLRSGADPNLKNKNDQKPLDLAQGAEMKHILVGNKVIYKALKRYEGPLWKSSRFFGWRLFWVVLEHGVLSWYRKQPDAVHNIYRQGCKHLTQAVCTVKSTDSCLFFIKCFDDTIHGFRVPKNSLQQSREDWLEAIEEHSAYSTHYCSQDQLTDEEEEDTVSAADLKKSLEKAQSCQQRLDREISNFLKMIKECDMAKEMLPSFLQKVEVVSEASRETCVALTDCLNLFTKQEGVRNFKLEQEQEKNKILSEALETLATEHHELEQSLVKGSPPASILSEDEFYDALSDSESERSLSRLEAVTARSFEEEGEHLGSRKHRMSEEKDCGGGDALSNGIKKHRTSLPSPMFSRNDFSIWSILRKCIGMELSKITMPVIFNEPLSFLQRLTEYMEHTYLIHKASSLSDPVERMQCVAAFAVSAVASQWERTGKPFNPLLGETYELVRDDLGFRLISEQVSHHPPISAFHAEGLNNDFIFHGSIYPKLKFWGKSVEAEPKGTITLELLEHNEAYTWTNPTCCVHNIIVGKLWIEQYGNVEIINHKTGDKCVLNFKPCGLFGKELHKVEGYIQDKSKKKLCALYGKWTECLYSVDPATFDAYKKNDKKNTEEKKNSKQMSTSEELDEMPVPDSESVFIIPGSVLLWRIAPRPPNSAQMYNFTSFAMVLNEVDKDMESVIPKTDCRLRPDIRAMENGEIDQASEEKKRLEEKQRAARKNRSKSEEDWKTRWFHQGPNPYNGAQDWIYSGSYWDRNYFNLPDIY

[3] = target: GST-RILP (Rab7-interacting lysosomal protein) (UniProt Q96NA2); test: pull-down; GST-fusion protein coupled to GST-Sepharose 4B resin incubated with HEK-293T lysate containing the GFP-tagged protein, 4 °C overnight; lysis buffer 20 mM HEPES pH 7.4, 1% Triton X-100, 100 mM NaCl, 5 mM MgCl2; washes with 500, 300 and 100 mM NaCl; Western blot with GFP antibody; only the target purified

B1: GFP-ORP1L (OSBP-related protein 1L), Q9BXW6-1 1-950 (protein)
chain: MNTEAEQQLLHHARNGNAEEVRQLLETMARNEVIADINCKGRSKSNLGWTPLHLACYFGHRQVVQDLLKAGAEVNVLNDMGDTPLHRAAFTGRKELVMLLLEYNADTTIVNGSGQTAKEVTHAEEIRSMLEAVERTQQRKLEELLLAAAREGKTTELTALLNRPNPPDVNCSDQLGNTPLHCAAYRAHKQCALKLLRSGADPNLKNKNDQKPLDLAQGAEMKHILVGNKVIYKALKRYEGPLWKSSRFFGWRLFWVVLEHGVLSWYRKQPDAVHNIYRQGCKHLTQAVCTVKSTDSCLFFIKCFDDTIHGFRVPKNSLQQSREDWLEAIEEHSAYSTHYCSQDQLTDEEEEDTVSAADLKKSLEKAQSCQQRLDREISNFLKMIKECDMAKEMLPSFLQKVEVVSEASRETCVALTDCLNLFTKQEGVRNFKLEQEQEKNKILSEALETLATEHHELEQSLVKGSPPASILSEDEFYDALSDSESERSLSRLEAVTARSFEEEGEHLGSRKHRMSEEKDCGGGDALSNGIKKHRTSLPSPMFSRNDFSIWSILRKCIGMELSKITMPVIFNEPLSFLQRLTEYMEHTYLIHKASSLSDPVERMQCVAAFAVSAVASQWERTGKPFNPLLGETYELVRDDLGFRLISEQVSHHPPISAFHAEGLNNDFIFHGSIYPKLKFWGKSVEAEPKGTITLELLEHNEAYTWTNPTCCVHNIIVGKLWIEQYGNVEIINHKTGDKCVLNFKPCGLFGKELHKVEGYIQDKSKKKLCALYGKWTECLYSVDPATFDAYKKNDKKNTEEKKNSKQMSTSEELDEMPVPDSESVFIIPGSVLLWRIAPRPPNSAQMYNFTSFAMVLNEVDKDMESVIPKTDCRLRPDIRAMENGEIDQASEEKKRLEEKQRAARKNRSKSEEDWKTRWFHQGPNPYNGAQDWIYSGSYWDRNYFNLPDIY
binding [1]: binds

B4: GFP-ORP1L(1-485aa) (domain or fragment, UniProt Q9BXW6-1 1-485)
chain: MNTEAEQQLLHHARNGNAEEVRQLLETMARNEVIADINCKGRSKSNLGWTPLHLACYFGHRQVVQDLLKAGAEVNVLNDMGDTPLHRAAFTGRKELVMLLLEYNADTTIVNGSGQTAKEVTHAEEIRSMLEAVERTQQRKLEELLLAAAREGKTTELTALLNRPNPPDVNCSDQLGNTPLHCAAYRAHKQCALKLLRSGADPNLKNKNDQKPLDLAQGAEMKHILVGNKVIYKALKRYEGPLWKSSRFFGWRLFWVVLEHGVLSWYRKQPDAVHNIYRQGCKHLTQAVCTVKSTDSCLFFIKCFDDTIHGFRVPKNSLQQSREDWLEAIEEHSAYSTHYCSQDQLTDEEEEDTVSAADLKKSLEKAQSCQQRLDREISNFLKMIKECDMAKEMLPSFLQKVEVVSEASRETCVALTDCLNLFTKQEGVRNFKLEQEQEKNKILSEALETLATEHHELEQSLVKGSPPASILSEDEFYDALSDSES
binding [3]: binds

B5: GFP-ORP1L(1-468aa) (domain or fragment, UniProt Q9BXW6-1 1-468)
chain: MNTEAEQQLLHHARNGNAEEVRQLLETMARNEVIADINCKGRSKSNLGWTPLHLACYFGHRQVVQDLLKAGAEVNVLNDMGDTPLHRAAFTGRKELVMLLLEYNADTTIVNGSGQTAKEVTHAEEIRSMLEAVERTQQRKLEELLLAAAREGKTTELTALLNRPNPPDVNCSDQLGNTPLHCAAYRAHKQCALKLLRSGADPNLKNKNDQKPLDLAQGAEMKHILVGNKVIYKALKRYEGPLWKSSRFFGWRLFWVVLEHGVLSWYRKQPDAVHNIYRQGCKHLTQAVCTVKSTDSCLFFIKCFDDTIHGFRVPKNSLQQSREDWLEAIEEHSAYSTHYCSQDQLTDEEEEDTVSAADLKKSLEKAQSCQQRLDREISNFLKMIKECDMAKEMLPSFLQKVEVVSEASRETCVALTDCLNLFTKQEGVRNFKLEQEQEKNKILSEALETLATEHHELEQSLVKGSPPA
binding [3]: no binding

B6: GFP-ORP1L(486-950aa) (domain or fragment, UniProt Q9BXW6-1 486-950)
chain: ERSLSRLEAVTARSFEEEGEHLGSRKHRMSEEKDCGGGDALSNGIKKHRTSLPSPMFSRNDFSIWSILRKCIGMELSKITMPVIFNEPLSFLQRLTEYMEHTYLIHKASSLSDPVERMQCVAAFAVSAVASQWERTGKPFNPLLGETYELVRDDLGFRLISEQVSHHPPISAFHAEGLNNDFIFHGSIYPKLKFWGKSVEAEPKGTITLELLEHNEAYTWTNPTCCVHNIIVGKLWIEQYGNVEIINHKTGDKCVLNFKPCGLFGKELHKVEGYIQDKSKKKLCALYGKWTECLYSVDPATFDAYKKNDKKNTEEKKNSKQMSTSEELDEMPVPDSESVFIIPGSVLLWRIAPRPPNSAQMYNFTSFAMVLNEVDKDMESVIPKTDCRLRPDIRAMENGEIDQASEEKKRLEEKQRAARKNRSKSEEDWKTRWFHQGPNPYNGAQDWIYSGSYWDRNYFNLPDIY
binding [3]: no binding

The next lines start with the values.

binding [2]: binds
B2: His-RILP, Q96NA2 1-401 (protein)
chain: MEPRRAAPGVPGWGSREAAGSASAAELVYHLAGALGTELQDLARRFGPEAAAGLVPLVVRALELLEQAAVGPAPDSLQVSAQPAEQELRRLREENERLRRELRAGPQEERALLRQLKEVTDRQRDELRAHNRDLRQRGQETEALQEQLQRLLLVNAELRHKLAAMQTQLRAAQDRERERQQPGEAATPQAKERARGQAGRPGHQHGQEPEWATAGAGAPGNPEDPAEAAQQLGRPSEAGQCRFSREEFEQILQERNELKAKVFLLKEELAYFQRELLTDHRVPGLLLEAMKVAVRKQRKKIKAKMLGTPEEAESSEDEAGPWILLSDDKGDHPPPPESKIQSFFGLWYRGKAESSEDETSSPAPSKLGGEEEAQPQSPAPDPPCSALHEHLCLGASAAPEA

binding [3]: binds
B3: GFP-ORP7(1-409aa) (domain or fragment, UniProt Q9BZF2 1-409)
chain: MDFQERDPPFLPESAQSSKPSSAQQASELWEVVEEPRVRLGTEGVMPERQEGHLLKKRKWPLKGWHKRYFVLEDGILHYATTRQDITKGKLHGSIDVRLSVMSINKKAQRIDLDTEDNIYHLKIKSQDLFQSWVAQLRAHRLAHRLDMPRGSLPSTAHRKVPGAQLPTAATASALPGLGPREKVSSWLRDSDGLDRCSHELSECQGKLQELHRLLQSLESLHRIPSAPVIPTHQASVTTERPKKGKRTSRMWCTQSFAKDDTIGRVGRLHGSVPNLSRYLESRDSSGTRGLPPTDYAHLQRSFWALAQKVHSSLSSVLAALTMERDQLRDMHQGSELSRMGVSEASTGQRRLHSLSTSSDTTADSFSSLNPEEQEALYMKGRELTPQLSQTSILSLADSHTEFFDACEV

binding [3]: no binding
B7: GFP-ORP7(1-401aa) (domain or fragment, UniProt Q9BZF2 1-401)
chain: MDFQERDPPFLPESAQSSKPSSAQQASELWEVVEEPRVRLGTEGVMPERQEGHLLKKRKWPLKGWHKRYFVLEDGILHYATTRQDITKGKLHGSIDVRLSVMSINKKAQRIDLDTEDNIYHLKIKSQDLFQSWVAQLRAHRLAHRLDMPRGSLPSTAHRKVPGAQLPTAATASALPGLGPREKVSSWLRDSDGLDRCSHELSECQGKLQELHRLLQSLESLHRIPSAPVIPTHQASVTTERPKKGKRTSRMWCTQSFAKDDTIGRVGRLHGSVPNLSRYLESRDSSGTRGLPPTDYAHLQRSFWALAQKVHSSLSSVLAALTMERDQLRDMHQGSELSRMGVSEASTGQRRLHSLSTSSDTTADSFSSLNPEEQEALYMKGRELTPQLSQTSILSLADSHT

binding [3]: no binding
B8: GFP-ORP7(410-842aa) (domain or fragment, UniProt Q9BZF2 410-842)
chain: LLSASSSENEGSEEEESCTSEITTSLSEEMLDLRGAERCQKGGCVPGRPMGPPRRRCLPAASGPGADVSLWNILRNNIGKDLSKVSMPVQLNEPLNTLQRLCEELEYSSLLDQASRIADPCERMVYIAAFAVSAYSSTYHRAGCKPFNPVLGETYECERPDRGFRFISEQVSHHPPISACHAESENFAFWQDMKWKNKFWGKSLEIVPVGTVNVSLPRFGDHFEWNKVTSCIHNVLSGQRWIEHYGEVLIRNTQDSSCHCKITFCKAKYWSSNVHEVQGAVLSRSGRVLHRLFGKWHEGLYRGPTPGGQCIWKPNSMPPDHERNFGFTQFALELNELTAELKRSLPSTDTRLRPDQRYLEEGNIQAAEAQKRRIEQLQRDRRKVMEENNIVHQARFFRRQTDSSGKEWWVTNNTYWRLRAEPGYGNMDGAVLW
